{"source": "the supplement of paper PMC11417369", "note": "± gives the standard deviation of the averaged measurements. The list shows a part of the results."}
{"tested_on": "PfAP2-EXP AP2 domain (GST-tagged)", "assay": "gcPBM binding intensity (ln(normalized median fluorescence intensity)); higher = stronger DNA binding", "procedure,_shortened": "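An Agilent 4 × 180k array carrying primer-extended double-stranded 36-bp intergenic genomic probes and negative controls received GST-tagged P. falciparum DNA-binding domains expressed in E. coli, about 25 μg on average, for 1 h. The binding buffer contained 1× PBS, 1% milk, 0.2 mg/ml BSA, 0.5% salmon testes DNA and 0.03% Triton X-100. Binding intensity is the top Masliner-normalised natural-log median intensity across replicate spots of either probe orientation, read after Alexa488 anti-GST antibody staining and a 488 nm scan.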"}
{"sequence": "CTCTTCCTTAATTTTTGTACTTAAAATTTTTTTTTT [XGTACX_site1628]", "gcPBM binding intensity (ln)": "8.9 ± 0.4"}
{"sequence": "ATATCAATTTTTGGTGGTACGTAGGAAGTTTCAGAA [XGTACX_site6881]", "gcPBM binding intensity (ln)": "8.91 ± 0.43"}
{"sequence": "ACTTTAAAAAGATTCACACAAAATATATAAAAATAT [CACACA_site5334]", "gcPBM binding intensity (ln)": "8.28 ± 0.4"}
{"sequence": "AAAAGTTGTATTTGCACACATAAAAAAAAGATATTA [CACACA_site3840]", "gcPBM binding intensity (ln)": "8.46 ± 0.38"}
{"sequence": "AACCCCAAGCCGTACTGTACATATATTTTTATTTTA [XGTACX_site142]", "gcPBM binding intensity (ln)": "9.06 ± 0.69"}
{"sequence": "AAATTCAAACAAATTACACACATTTTTTTTTAATTT [CACACA_site3596]", "gcPBM binding intensity (ln)": "8.71 ± 0.47"}
{"sequence": "AAAAAAAAAAAAAAATGTACATATATATTTATATAT [XGTACX_site229]", "gcPBM binding intensity (ln)": "8.28 ± 0.18"}
{"sequence": "TCAAAGGAATTTTTATGTACATATAAACTTTATTCT [XGTACX_site3432]", "gcPBM binding intensity (ln)": "8.59 ± 0.45"}
{"sequence": "TATTATTCTACTATTATATTCTATATTATTTATAGT [CACACA_negctrl_site499]", "gcPBM binding intensity (ln)": "8.44 ± 0.39"}
{"sequence": "ATATATCTATATAGAAATGTATATATATATATGTGT [TGCATGCA_negctrl_site349]", "gcPBM binding intensity (ln)": "8.46 ± 0.3"}
{"sequence": "TAAAATCAATGTTCTTGTACTTAAAATGTTTGTTCT [XGTACX_site5490]", "gcPBM binding intensity (ln)": "8.36 ± 0.39"}
{"sequence": "AAAATTAAATTATTTACACACAATATTAAAATATTT [CACACA_site3244]", "gcPBM binding intensity (ln)": "8.11 ± 0.45"}
{"sequence": "AGTATAAAATTTGGTTGTACATTTTTAAAAAAATTA [XGTACX_site7519]", "gcPBM binding intensity (ln)": "8.38 ± 0.35"}
{"sequence": "AAATAAATTTGACCAGTGCAATAACTTTGTATACCT [GTGCAC_site9446]", "gcPBM binding intensity (ln)": "8.67 ± 0.085"}
{"sequence": "TATAATATAAAAAAAAGTACACGAATTTTTTTTCAG [XGTACX_site6105]", "gcPBM binding intensity (ln)": "8.38 ± 0.4"}
{"sequence": "ATCCAAAAGAAAAATAGTACAGATATGAACAATATG [XGTACX_site6944]", "gcPBM binding intensity (ln)": "8.76 ± 0.42"}
{"sequence": "ACAATATATTTTTGAGCATGCGCAAAAGAGAATGCA [TGCATGCA_site566]", "gcPBM binding intensity (ln)": "9.24 ± 0.49"}
{"sequence": "TCAAAAATTTATATAGTGCAATATATATATAATGTA", "gcPBM binding intensity (ln)": "8.31 ± 0.42"}
{"sequence": "TGTGGCCCTGCGAGGTGGTCATCATGAATACGAAAA [XGTACX_site1526]", "gcPBM binding intensity (ln)": "8.55 ± 0.34"}
{"sequence": "TGAATTAACAAATAGACACACATATATATATATATA [CACACA_site3195]", "gcPBM binding intensity (ln)": "10 ± 0.4"}
{"sequence": "TTAAAAAATATATGCGTGCACTAATATTTCATATGC", "gcPBM binding intensity (ln)": "9.02 ± 0.48"}
{"sequence": "ACCATTTGTACTTACGCACACATAAAATATATATAT [CACACA_site1545]", "gcPBM binding intensity (ln)": "9.2 ± 0.071"}
{"sequence": "TACTATTTTTATAATACACACATATATTTGTGATAT [CACACA_site1775]", "gcPBM binding intensity (ln)": "8.52 ± 0.38"}
{"sequence": "TCATACATTTTCCTTGCACACATTTATAATTAATGT [CACACA_site614]", "gcPBM binding intensity (ln)": "8.97 ± 0.4"}
{"sequence": "TAATTTATTGTACGTGCATGCTATTTTTTATTTTTA [TGCATGCA_site1059]", "gcPBM binding intensity (ln)": "9.46 ± 0.34"}
{"sequence": "TTGTAATATATAAAAGTGCATATATGGTTCCATATA [GTGCAC_site9544]", "gcPBM binding intensity (ln)": "8.59 ± 0.35"}
{"sequence": "AACAAAAAAACAAACACACACACACCCATATATATA [CACACA_site3652]", "gcPBM binding intensity (ln)": "8.78 ± 0.26"}
{"sequence": "ATATGTGAATAAAAATGTACGTGTTCTTTTTTTTTT [XGTACX_site320]", "gcPBM binding intensity (ln)": "8.43 ± 0.47"}
{"sequence": "ACTATAAATATATACACATGCGCACACACAAGTGGG [TGCATGCA_site432]", "gcPBM binding intensity (ln)": "8.77 ± 0.39"}
{"sequence": "TACCTATAAAAGTACACACACACACGGATATAAATA [CACACA_site6569]", "gcPBM binding intensity (ln)": "8.9 ± 0.59"}
{"sequence": "ATTGATCTTTATTGTTGTACATTAAACGTTAATTTT [XGTACX_site1788]", "gcPBM binding intensity (ln)": "8.77 ± 0.49"}
{"sequence": "TAACAAAATGTAAATAAACACACATATATATATATA [CACACA_site8352]", "gcPBM binding intensity (ln)": "10 ± 0.4"}
{"sequence": "TATTATATAATTTTAACACACAAGAATATAAACTTT [CACACA_site1363]", "gcPBM binding intensity (ln)": "8.31 ± 0.38"}
{"sequence": "AAAAAGAAAAAACTTACACACATATATACCCCCATG [CACACA_site4463]", "gcPBM binding intensity (ln)": "9.71 ± 0.38"}
{"sequence": "TAATTTAAATGATGTAGTACATATAAATATATCTAA [XGTACX_site262]", "gcPBM binding intensity (ln)": "8.07 ± 0.11"}
{"sequence": "TGAAGGAATACAGCTCGTACATGTGTAAAGAGATAA [XGTACX_site500]", "gcPBM binding intensity (ln)": "8.92 ± 0.47"}
{"sequence": "AACATTCTATGTTGCACACAAAGAGAAAAATTTATT [CACACA_site3995]", "gcPBM binding intensity (ln)": "8.59 ± 0.58"}
{"sequence": "AATAAAAAAATTAAAATTAAAAAATTAAAACTTAAA [CACACA_negctrl_site987]", "gcPBM binding intensity (ln)": "7.88 ± 0.41"}
{"sequence": "ATGGAAATTTTATCATGTACATATACCGTTGAATAA [XGTACX_site5420]", "gcPBM binding intensity (ln)": "8.6 ± 0.35"}
{"sequence": "ACATATAAGTTATATACACACAATAATATGTAAATA [CACACA_site6766]", "gcPBM binding intensity (ln)": "8.35 ± 0.49"}
{"sequence": "ATATTTTTTATAAAATGTACTTATTATTAGAATATA [XGTACX_site2460]", "gcPBM binding intensity (ln)": "8.28 ± 0.23"}
{"sequence": "TACAAAATATGGTAATAAAGTAGTTACATGAATTGG [XGTACX_negctrl_site522]", "gcPBM binding intensity (ln)": "8.55 ± 0.43"}
{"sequence": "AAATAGTCTTCTCTTGCATGTAACAAATATATATAT [TGCATGCA_site428]", "gcPBM binding intensity (ln)": "9.38 ± 0.099"}
{"sequence": "TAGTAAGAATTACTGTGTACTAAAATATTAAAAAGT [XGTACX_site2578]", "gcPBM binding intensity (ln)": "8.69 ± 0.26"}
{"sequence": "AATAAAAACAAACAAAAAAACAAATAAATAAATAAA [CACACA_negctrl_site483]", "gcPBM binding intensity (ln)": "8.64 ± 0.39"}
